# Test results from the BET-seq Pho4 binding data (Le et al. 2018).
# The list shows a part of the results. These are noisy estimates, calculated here from bound and input reads.
# Biological target: T1, Pho4 (S. cerevisiae) (UniProt P07270)
# T1 sequence: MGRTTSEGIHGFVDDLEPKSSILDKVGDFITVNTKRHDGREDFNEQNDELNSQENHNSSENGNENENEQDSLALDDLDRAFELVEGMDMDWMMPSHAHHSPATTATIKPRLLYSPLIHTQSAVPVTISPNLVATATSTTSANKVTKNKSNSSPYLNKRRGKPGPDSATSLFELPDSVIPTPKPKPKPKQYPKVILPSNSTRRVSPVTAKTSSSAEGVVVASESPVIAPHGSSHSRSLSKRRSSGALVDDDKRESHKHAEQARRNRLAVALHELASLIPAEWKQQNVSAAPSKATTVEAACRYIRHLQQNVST
# Assay: relative binding free energy (BET-seq); higher = weaker binding
# Details: reference: library average
row,Sequence,relative binding free energy [kcal/mol]
1,TGTAGCACGTGCTTGA,-0.17
2,GAGAACACGTGTGTTT,0.01
3,AGCTGCACGTGTTAGG,0
4,GAATGCACGTGGGTAG,-0.03
5,GCTGACACGTGAGGGG,0.24
6,ATGCTCACGTGTGTAT,0.13
7,GTTATCACGTGTGATC,0.38
8,TCGGGCACGTGAAGGA,0.11
9,GACGGCACGTGCGGGT,0.02
10,TATTTCACGTGTGACA,0.31
11,TTTTACACGTGTTTGC,0.03
12,TGTATCACGTGTTGCG,0.14
13,AATCACACGTGTGTGT,0.1
14,TTGTACACGTGGCGAA,0.02
15,AAACTCACGTGTTTGT,0.12
16,TTTGTCACGTGGTGAA,0.01
17,GAATACACGTGTCGGT,0.12
18,TATTTCACGTGGTTTA,0.25
19,GTATGCACGTGTTCTT,0.03
20,TGGTGCACGTGTCGGC,0.04
21,GAGCACACGTGGTGTT,0.1
22,TGGTTCACGTGTGCGA,0.36
23,CTTGGCACGTGTTTAT,-0.14

row,Sequence,relative binding free energy [kcal/mol]
1,TGATGCACGTGCGTAT,-0.06
2,GTCGGCACGTGGGTCG,-0.21
3,GGTATCACGTGCGGTT,0.16
4,TATGGCACGTGCTATA,-0.15
5,AGGGGCACGTGAATAA,0.16
6,TGAAGCACGTGTCAGT,-0.02
7,TGTACCACGTGAGAGT,0.31
8,TCGGACACGTGTAGGT,0.01
9,GGGAGCACGTGGAGGT,-0.18
10,TAGGTCACGTGTAGGG,0.14
11,GGGGACACGTGGTATA,-0.01
12,GGGCGCACGTGGAATG,0.04
13,ACATGCACGTGAAGGG,0.2
14,TTGCGCACGTGTTGAT,0.07
15,ACGTTCACGTGTATGA,0.32
16,CGATGCACGTGATTGT,0.04
17,GGTAACACGTGTAGGT,0.09
18,CTGTCCACGTGGTGTT,-0.21
19,TGAGGCACGTGGTCGC,-0.21
20,TTTGGCACGTGCAGCG,-0.11
21,CGTATCACGTGGTTCG,0.04
22,CGGACCACGTGGGTGT,-0.09
23,ATGTTCACGTGTTGAT,0.22

row,Sequence,relative binding free energy [kcal/mol]
1,GTTTCCACGTGGTGTT,0.07
2,TGTAACACGTGATTAA,0.18
3,GTATTCACGTGTTCTA,0.47
4,TTAGACACGTGGTGAA,0
5,AATTGCACGTGGCGTA,-0.15
6,ACGGGCACGTGACGGT,0.07
7,ATGTTCACGTGGATAA,0.29
8,CGATGCACGTGTGGGA,0.07
9,TTTGACACGTGGTACA,0.01
10,TTTGACACGTGTCATG,0.11
11,GCGTCCACGTGGGGCG,-0.15
12,GGGTTCACGTGAGATA,0.52
13,AAGGACACGTGGCTGT,-0.09
14,TGTTGCACGTGCGTCT,-0.07
15,TTTGTCACGTGTAGGC,0.17
16,TACGACACGTGTTTTT,0.11
17,AGTTGCACGTGTAGCG,-0.11
18,CATGACACGTGGGGTC,-0.12
19,CGGTACACGTGAAGGT,0.32
20,CGGGGCACGTGTATAT,0.03
21,TTCCTCACGTGGGTGT,0
22,GTTGACACGTGGGGTC,-0.02
23,GATAGCACGTGGTAGT,-0.16

row,Sequence,relative binding free energy [kcal/mol]
1,AATCGCACGTGGTTTT,0.06
2,CGTGTCACGTGTGCTG,0.06
3,TGTAGCACGTGTACGG,0.1
4,GCAGGCACGTGTGTCG,0.02
5,GGGTGCACGTGGGATC,-0.03
6,TTGGTCACGTGGTATC,-0.08
7,GGAGACACGTGTTCGG,-0.02
8,TGAGTCACGTGTGGGA,0.23
9,GTGAGCACGTGGATTT,0.02
10,GGAAGCACGTGTGTGA,-0.14
11,CGTTTCACGTGTGCGT,0.24
12,GATATCACGTGGATTA,0.24
13,CTGGTCACGTGTGATG,0.22
14,GCCGGCACGTGGTTTG,-0.16
15,TGTATCACGTGGGTTC,0.02
16,GTGGGCACGTGTAGGC,-0.03
17,TTAGTCACGTGGAGAG,0.03
18,GGGGTCACGTGGGATC,0.15
19,GATGGCACGTGTCTGT,-0.13
20,TTGGGCACGTGACGGA,0.04
21,CGTTACACGTGATGTG,0.06
22,GATATCACGTGTGATG,0.36
23,GGGTGCACGTGAAATA,0.13

row,Sequence,relative binding free energy [kcal/mol]
1,AGAGGCACGTGTTGCT,-0.07
2,ATTTCCACGTGGGTTT,-0.04
3,TTGGGCACGTGATTAC,0.07
4,GTCTCCACGTGTGTTG,0.14
5,GTAGACACGTGGGGAA,0.03
6,TGTTCCACGTGTGCGT,-0.06
7,AGTTTCACGTGAGTTT,0.44
8,TGGGCCACGTGGAGTC,0.01
9,TATACCACGTGTTGGG,-0.13
10,TAGGGCACGTGTTGGC,0.08
11,TATTGCACGTGAAATA,0.11
12,GGTAGCACGTGGTTAG,-0.13
13,GATGTCACGTGTTATA,0.11
14,GTTCGCACGTGGTTCT,0.03
15,AATGTCACGTGGAGGA,0.04
16,AGTGTCACGTGTGAGC,0.09
17,GAGGTCACGTGTAGGT,0.15
18,TGTAGCACGTGTTCTA,-0.06
19,TACGTCACGTGGGTAA,0.02
20,AGTTACACGTGGGGAA,0
21,AAGAGCACGTGATTGG,0.15
22,AATTTCACGTGGTTCG,0.3
23,TTTTGCACGTGCTATA,-0.13
